The chains are these.
B1: CPEB3 Ribozyme (parent)
chain: UAACAGGGGGCCACAGCAGAAGCGUUCACGUCGCAGCCCCUGUCAGAUUCUGGUGAAUCUGCGAAUUCUGCUGUAUAUCUC

The source gives no read counts; variants with many changes may rest on few reads.

In the data set the parent is B1. As to the kind of experiment: self-cleavage, relative activity (ratio to wild type); higher = more cleavage; in vitro, sequencing. The essentials: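 For each CPEB3 ribozyme variant, relative activity is its cleaved/total read fraction divided by the unmutated ribozyme's. Barcoded error-prone PCR libraries were transcribed by T7 RNA polymerase (5 hours, 37°C) and held in DNase I for 15 min before an EDTA stop, with cleavage occurring throughout. Template-switching reverse transcription and Illumina sequencing were used to read the RNAs. A 5-read minimum applied, and results are the mean of three batches.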
For G9A G33A A35U U51C U54A U69C, the self-cleavage came out at 0.05.
On to G9U A13G G24A U25C U41C U72A, for which the self-cleavage is 0.05.
Take G8U G9A A35G C37G U41C C59A U67C: the self-cleavage turned out to be 0.04.
As to G9U A28U U51C A56G U69C A75G, the self-cleavage stood at 0.01.
Take G9A C11A A21C U54C U76C: the self-cleavage worked out at 0.04.
As for G8C A13U A21G G33U A57U A64U, the figure is 0.1.
As for G9A U31C C59U U60C U72A, the figure is 0.04; as for G8C A18G A21U A28G U43C U72C U80C, 0.05; as for G8U U41A G61C, 0.19.
As for G9A A35G G42U A57G, the figure is 0.03; as for G9A A47G U54C U78G, 0.06; as for G10A A13G U26C, 0.24.
On to G8C U58C G63U U66C U69A, for which the self-cleavage is 0.1.
As for G9U C12U A64G, the figure is 0.06.
As for G9U A13U A57G A65U U66C, the figure is 0.05; as for G8C A15U U25C A56G A57C C62U A64G, 0.09.
In the case of G9C U66C A77C U80C, the self-cleavage is 0.2.
For the variant G9A A57G C71G, the self-cleavage came to 0.13.
Take G9A A56G U72A: the self-cleavage was 0.38.
As for G9U A15G A20G A45C, the figure is 0.25; as for G8U U26A U41C U49C, 0.13.
As for G9U U25G C32A C34A U67C, the figure is 0.07; as for G9C U43C A56U, 0.31; as for G8U U41A G52A A64G C71G, 0.04.
As for G9A C12G A13G G42U A64U U72C, the figure is 0.05; as for G8U U26C A28G A35G U58C A64G U67C, 0.05; as for G9A A28G G33A U51G, 0.14.
Take G9C A18G C38U: the self-cleavage stood at 0.07.
As for G9A A21G C23U, the figure is 0.04; as for G8C U43A A65U U76C, 0.08; as for G9A U41C U49C U60C A65G U78C, 0.08.
Consider G9U U41A A56G A65U U78C, for which the self-cleavage stood at 0.1.
As for G8A U31C U43C U72A, the figure is 0.05; as for G9A A15U A35U U72A U78A, 0.03.
As for G9A A13G C40A A56G U58C G63U, the figure is 0.04; as for G8U U43A U60C A64U U78C U80C, 0.05; as for G8C A13G G24A U51C U60A, 0.54.
With G8C A18U U67C U80A, the self-cleavage stood at 0.35.
On to G9A A15U A47G U60C U69C, for which the self-cleavage was 0.06.
As for G9A A21G A75U, the figure is 0.06; as for G9U A47G U80C, 0.41.
As for G10A A13G A56G U60C U78C, the figure is 0.11; as for G9C A35G U49A U54C U80C C81U, 0.15.
For G9C A28G A65G U66C, the self-cleavage stood at 0.07.
As for G9C A20G G24U U78C, the figure is 0.28; as for G10A A18U C32A, 0.14; as for G8U A20G U60C U69G, 0.04.
As for G10A A18G U51C, the figure is 0.34; as for G8A U31A C32U U66C, 0.17.
As for G9A C11G G19C U31A U41C U66C U69C, the figure is 0.03; as for G9A A35G U54A A57U U78C, 0.27; as for G8A U26C A35G U41A A64U U69A U74C, 0.03.
With G9C C14U U41C U43C A56G A64G, the self-cleavage came to 0.12.
As to G9A U54G A56G, the self-cleavage was found to be 0.06.
As for G9A A15U A18U A57G U60A, the figure is 0.46.
As for G9A A15G A28G C50A U51A U67A, the figure is 0.16; as for G8C A18G G19A C39G U69A, 0.05; as for G9C A13U A20G U26A G33A A56U U67C, 0.16.
As for G9A C11U A47G U58A U69C, the figure is 0.05.
For the variant G9A C34U C40G A45U U49A, the self-cleavage stood at 0.13.
As for G8C A47G U58C, the figure is 0.08.
Regarding G8C A18G A20G A28G, the self-cleavage is 0.29.
Regarding G9A U49C U80C, the self-cleavage is 0.39.
With G8A U26A U43C G61U, the self-cleavage worked out at 0.08.
As for G9U A18G A28G U58G U60C, the figure is 0.05.
As for G8C A18G G30U U43A U60C U78A, the figure is 0.05; as for G9U C14U C23G U67C U72C, 0.05.
As for G9A U26G A56U, the figure is 0.18; as for G9A A28U A35U C40U, 0.14; as for G8C A18G U58A, 0.48.
G9A A28G C32U U51G C62A: the self-cleavage was found to be 0.05.
With G9A A13C A75U, the self-cleavage came to 0.17.
As for G8U G9A G53A, the figure is 0.44; as for G8U A13G G52A G73U, 0.32; as for G8A U26C C32A U41A G52U C62U, 0.21.
As for G9A A21G U31A U43C A65G U67C, the figure is 0.26; as for G9A A20U U43A U72C, 0.27; as for G9A A35C A57U, 0.39.
Take G9C A20U A47G U48C A56G: the self-cleavage was 0.09.
As for G8U C17U A65G U69G, the figure is 0.07.
For the variant G9U U72G A75G, the self-cleavage came to 0.43.
As for G10A A15G A56G, the figure is 0.35.
Regarding G9A A21U U66C U69C U78C, the self-cleavage amounted to 0.13.
As for G9U A21G A35U A45G A47G, the figure is 0.05; as for G9U C23U U26C A56U U67A, 0.16.
In the case of G9C U48A C71G, the self-cleavage was 0.03.
As for G9A A21G U41A U67C, the figure is 0.13; as for G8A U26C A35U U49C, 0.15; as for G10A A15U U25C U54A, 0.04.
As for G9U A28G U41A U43C U49C U69C, the figure is 0.02; as for G10A A13G A18C A21G U72A U74A U80A, 0.3; as for G10A A18U A28G U72C U76C, 0.21.
For G10A A18G U43G U49A, the self-cleavage was found to be 0.04.
As for G8U A28G U54C U66G, the figure is 0.11.
Take G8C A13G A45G A57G: the self-cleavage stood at 0.07.
As for G10A A13G A18G U25A, the figure is 0.06; as for G9U A13G A18U U31A U69C U72C, 0.1; as for G8U G33C A77G, 0.09.
As for G9A A45U A47G U60A, the figure is 0.33.
As for G9A A18U G30A G36A A45G U78C, the figure is 0.04; as for G8A U26C A56G U60C C71U U72C, 0.11.
With G8U U31G U51A A75U, the self-cleavage came to 0.05.
As for G9A A35U U48A U51C, the figure is 0.04.
As for G8C A18G A56G, the figure is 0.26; as for G8U A13U U25C A56G G61C U72C A75U, 0.05; as for G9A A18G A21G U26C G61A, 0.25.
As to G9A U25A A28G U58C, the self-cleavage stood at 0.2.
Regarding G9U A20U A28U A47G A64U, the self-cleavage is 0.06.
As for G10A A15G A20U G30A U31C C40U, the figure is 0.06; as for G9U A13G C14U A35G A64G, 0.2; as for G8U U41C U69C U76C, 0.11.
As for G9U U49A U80A, the figure is 0.25; as for G9A C44U A47U U51A U80C, 0.25.
As for G8C A15G A18U G19U A20G A56U U67C, the figure is 0.15.
Consider G8C U54C U76C, for which the self-cleavage was 0.25.
Regarding G9A C17U A57G, the self-cleavage was determined as 0.22.
As for G9A U26C A65G U69A, the figure is 0.24; as for G9U A35G U58C U74A, 0.05; as for G8A U31C A64G U69C, 0.17.
As for G10A A18U U31C U49C A56G, the figure is 0.22; as for G8U U72G C81U, 0.1.
As for G9A C17U U26A A28G A35G U76C, the figure is 0.07; as for G9A U31C U54C U72A, 0.19.
Consider G10A A15U A47G, for which the self-cleavage was 0.06.
As for G9A U25G U60C U80C, the figure is 0.17; as for G9U A35U U69A, 0.11; as for G9U A18G A20G U48C C79A, 0.05.
As for G8C U66C U69A, the figure is 0.23; as for G9A U26C A28U U48A U80A, 0.48; as for G9A C32A C38U A64G U69A, 0.09.
As for G9A A35G A64U U72C, the figure is 0.15.
As to G9U C23A U74C, the self-cleavage came out at 0.21.
As for G10A A15G U31G U67C A75G, the figure is 0.04; as for G8U U26A U41C U49C U76C, 0.15; as for G9C U41C A56G A64G, 0.19.
As for G8U C38A C40U G53U U54C U76A, the figure is 0.04.
As for G9A G16A A20G A35G U60G, the figure is 0.05; as for G9U U26A U67C, 0.31; as for G9A C40U A45G G52A A56U A64U A77G, 0.03.
On to G8U C44A A56G U60C, for which the self-cleavage was determined as 0.14.
As for G10A A13U A35U U43C G63U U80A, the figure is 0.04.
As for G8C G24A U51A C62A U67C C68U, the figure is 0.05; as for G9U U49G U67C G70A, 0.06; as for G8A U26G U31A A47C, 0.04.
Consider G9A A13C A18U U31C U51G U67C G70A, for which the self-cleavage is 0.05.
As for G9A G10C C11U A20G G30U A35U A56G, the figure is 0.05; as for G9A U31C C38A A45G U54A A56G U67A, 1.14; as for G9U U25A A45G U51A G55A U80C, 0.08.
In the case of G9C A21G A35U A45U A77C, the self-cleavage turned out to be 0.05.
With G10A A13U A35G U78C, the self-cleavage turned out to be 0.51.
As for G9U A13G U31C A47G U76A, the figure is 0.05.
As for G8U U25C A35G, the figure is 0.07; as for G9U U25C A56U U72C A77U, 0.05; as for G9U U26A G42U A64G U66C U74A A75U, 0.05.
As for G8U A15G A21G U72G, the figure is 0.11; as for G8A U41A U58C A64G A65G C68G, 0.04.
For the variant G9A A18U U26A C38A U66C U67A C71U, the self-cleavage amounted to 0.03.
With G9A U26C C37U U54C A56U, the self-cleavage turned out to be 0.05.
As for G9A A15G U60C, the figure is 0.35; as for G8U A18U U25C U43G U49A U69C, 0.09; as for G8C C34A U43C U58C U72C, 0.14.
As to G9A C38U A47G U69C U72C, the self-cleavage was determined as 0.38.
As for G9A C17U U26C C39U U72A, the figure is 0.03; as for G8C A20C G36A C38A A65G U67C, 0.21.
As to G9A A13G C14U A20G U41C G42A U80C, the self-cleavage is 0.05.
For the variant G9U C23U G42A U67A U69A U78C, the self-cleavage was determined as 0.03.
With G9A G10C G30U U58C U78A, the self-cleavage amounted to 0.16.

The values are drawn from the RNAGym collection of RNA variant scans (doi:10.1093/nar/gkz1192).
